Values joined by “and” are separate entries in the source; they are usually repeats but may differ in a detail not shown here. Equal entries are not always repeated. Screen size: about 130,000 compounds; about 1,900 (1.5%) were called active. The inconclusive results got no clear call from the source; some entries with a clear call stand among them for comparison. Calls come from the whole dose curve; as a rule, active = well fitted cell-killing curve with a large enough effect; inconclusive = small, poorly fitted or top-dose-only effect; inactive = no such curve, though single readings can be large or run the other way. Where the call is inconclusive, the potency comes from a doubtful curve fit.
Test: qHTS Screen for Compounds that Selectively Target Cancer Cells with p53 Mutations: Cytotoxicity of p53ts Cells at the Nonpermissive Temperature; note: nearly all actives have a fitted effect of over 55% in size
Details: H1299-p53A138V viability at 39C, ATP luminescence, 24 h; activity change, negative = cell killing: at 46.1 µM (top of the series)
% is set by controls: 0 for no effect and ±100 for the full control effect; potency is the fitted concentration of half-maximal effect; tags give direction and shape of the fitted curve.

SMILES | Potency | activity change, negative = cell killing
Brc1ccccc1/C=N/Nc1ccc2ccccc2n1 | inconclusive: 11.2 µM [cytotoxic, partial curve, poor fit] | –
Cc1cc(NC(=O)c2ccccc2)ncc1NC(=O)c1ccco1 | inconclusive: 20 µM [cytotoxic, single point] | –
CCOc1ccccc1CNC(=O)c1ccc2c(c1)nc1n2CCCCC1 | inconclusive: 10 µM [cytotoxic, partial curve] | –
CCc1ccc(NC(=O)c2ccc(F)c(S(=O)(=O)NCc3ccc(Cl)c(Cl)c3)c2)cc1 | inconclusive: 12.6 µM [cytotoxic, partial curve] | –
CCOc1ccc(N2C(=O)c3n[nH]c(-c4cccs4)c3C2c2cccc(F)c2)cc1 (stereo not drawn) | inconclusive: 20 µM [cytotoxic, single point] | –
COc1ccccc1NC(=O)Cn1nnc(C(=O)Nc2ccccc2)c1N | inactive | –
OCC#CCSc1nnc(-c2ccc(Br)cc2)o1 | inconclusive: 12.6 µM [cytotoxic, partial curve] | –
CCOc1ccc(-n2nc(CO)c(C(=O)NCc3cccs3)n2)cc1 | inconclusive: 10 µM [cytotoxic, partial curve] | –
CCc1nnc(NC(=O)c2cccc(OC)c2)s1 | inconclusive: 20 µM [cytotoxic, single point] | –
O=C(CS(=O)(=O)c1cccc2nsnc12)N1CCN(c2cccc(C(F)(F)F)c2)CC1 | inconclusive: 0.0079 µM [cytotoxic, full curve] | –
CC(CNC(=O)C1CCN(C(=O)N2CCOc3ccc(Cl)cc32)CC1)c1ccccc1 (stereo not drawn) | inconclusive: 31.6 µM [cytotoxic, single point] | –
CCc1ccc(Sc2cc(C(=O)O)c3ccccc3n2)cc1 | inconclusive: 0.005 µM [cytotoxic, full curve, poor fit] | –
O=C(O)[C@H]1CCCC[C@@H]1C(=O)Nc1nc2ccccc2[nH]1 | – | inactive: -0.989% [at 9.22 µM]
Cc1cc(NC(=O)c2ccc(Cl)cc2)no1 | active: 7.94 µM | –
CCC(=O)Nc1cccc(-c2nc3ccccc3c(=O)o2)c1 | active: 10 µM | –
COc1cccc(-c2noc(-c3cccs3)n2)c1 | inactive | –
Cc1ccc(CNc2ccc(N3CCOCC3)cc2)s1 | inconclusive: 12.6 µM [cytotoxic, single point] | –
Cc1cccc(N(Cc2cc3ccccc3[nH]c2=O)C(=O)c2cccc(Cl)c2)c1 | inactive | –
Cc1cccc(CCNC(=O)c2ccc(CSCc3cccc(Cl)c3)o2)c1 | inactive | –
CCO[P@]1(=O)OC[C@@H]2O[C@H](n3cnc4c(N)ncnc43)[C@H](O)[C@@H]2O1 | – | inactive: 2.32% [at 9.22 µM]
COc1ccc2oc(-c3ccc(C)c(NC(=O)c4ccc(-c5ccccc5[N+](=O)[O-])o4)c3)nc2c1 | active: 10 µM | –
CCCCCCCCCCCCCCCCCC(=O)NC[C@@H](COP(=O)([O-])OCC[N+](C)(C)C)OCC | inconclusive: 3.16 µM [cytotoxic, single point] | –
CC(C)c1ccc(CNc2nc(-c3ccco3)nn2C(=O)c2ccc([N+](=O)[O-])cc2)cc1 | inconclusive: 31.6 µM [cytotoxic, single point] | –

SMILES | Potency | activity change, negative = cell killing
Cc1ccc(C(=O)Nc2ccc(Cl)cn2)cc1 | inconclusive: 7.94 µM [cytotoxic, partial curve] | –
COc1c(O)cc2oc3cc(O)c(CC=C(C)C)c(O)c3c(=O)c2c1CC=C(C)C | active: 3.16 µM and active: 31.6 µM | –
c1csc(-c2csc3nc(CN4CCOCC4)nc(NCc4ccc5c(c4)OCO5)c23)c1 | inconclusive: 31.6 µM [cytotoxic, single point] | –
CN(c1ccccc1)S(=O)(=O)c1nnc(NC(=O)COc2ccccc2)s1 | inconclusive: 1.58 µM [cytotoxic, full curve, poor fit] | –
CCOC(=O)C1CCN(c2c(C(=O)c3ccc(OC)cc3)cnc3ccccc23)CC1 | inconclusive: 31.6 µM [cytotoxic, single point] | –
CC(C)(C)c1nnc(N/N=C/c2cc(Br)ccc2O)n(N)c1=O | inconclusive: 3.98 µM [cytotoxic, full curve] | –
CC(=O)c1ccc(NC(=O)CN2C(=O)CCc3ccccc32)cc1 | inconclusive: 31.6 µM [cytotoxic, single point] | –
CCCOc1ccccc1NC(=O)c1ccc(N)cc1 | inactive | –
COCc1nnc(NC(=O)c2ccc(S(=O)(=O)N(C)C3CCCCC3)cc2)o1 | inconclusive: 15.8 µM [cytotoxic, partial curve] | –
O=C(CC(c1cccs1)N1Cc2ccccc2C1=O)Nc1ccc(F)c(F)c1 (stereo not drawn) | inactive | –
COc1cccc(CNCCSc2nnnn2C)c1OCc1ccccc1Cl | inconclusive: 1.26 µM [cytotoxic, single point] | –
Cc1ccc(-c2ccc(=O)n(CC(=O)Nc3ccc(C)cc3Cl)n2)cc1 | inconclusive: 31.6 µM [cytotoxic, single point] | –
CC1CCCN(C(=O)COC(=O)c2n[nH]c3ccccc23)C1 (stereo not drawn) | inconclusive: 10 µM [cytotoxic, partial curve] | –
O[C@@H](c1cc(C(F)(F)F)nc2c(Cl)cc(Cl)cc12)[C@@H]1CCCCN1 | – | inactive: 3.29% [at 9.22 µM]
Cc1ccc(OCC(=O)Nc2cccc(-c3nc4ccccc4s3)c2)cc1 | inactive | –
c1ccc2c(c1)Cc1cc3ccccc3nc1-2 | active: 12.6 µM | –
O=C(Nc1nc(-c2ccccn2)cs1)C1COc2ccccc2O1 (stereo not drawn) | inconclusive: 5.62 µM [cytotoxic, full curve, poor fit] | –
CCCCC(=O)NCc1nc2cccnc2n1Cc1ccc(OC)cc1 | inactive | –
CCOC(=O)c1ccc(N2CCN(c3cc(C)ccc3C)CC2)c(NC(=O)Nc2ccc(CC)cc2)c1 | inconclusive: 10 µM [cytotoxic, partial curve] | –
CCOc1ccc(NC(=O)CN2C(=O)CC(C)Sc3ccccc32)cc1 (stereo not drawn) | inconclusive: 0.0158 µM [cytotoxic, full curve, poor fit] | –
COc1cc(-c2nc3ccc(Cl)cn3c2Nc2ccc3c(c2)OCO3)ccc1O | inconclusive: 12.6 µM [cytotoxic, single point] | –
CCc1c(C)sc(NC(=O)c2cc(C)no2)c1C#N | inconclusive: 12.6 µM [cytotoxic, partial curve] | –
Cc1ccc(S(=O)(=O)N2CCCC2C(=O)NCCc2nc3ccccc3[nH]2)cc1 (stereo not drawn) | inconclusive: 10 µM [cytotoxic, partial curve] | –

SMILES | Potency | activity change, negative = cell killing
COC(=O)c1cccc(CSc2nnc(-c3ccco3)n2-c2ccccc2)c1 | inactive | –
COc1ccccc1CC(=O)NC1CC(C)(C)NC(C)(C)C1 | inactive | –
CCCOc1ccc(C(=O)NCC(c2ccc(OC)cc2)N2CCCCC2)cc1 (stereo not drawn) | inconclusive: 0.0316 µM [cytotoxic, partial curve, poor fit] | –
O=C(Nc1ccc(Cl)c(Cl)c1)c1cc(S(=O)(=O)N2CCN(c3cccc(Cl)c3)CC2)ccc1F | inactive | –
CCOC(=O)c1cnc(-c2ccccc2)nc1N | inconclusive: 10 µM [cytotoxic, partial curve] | –
Cc1cccc(OCCCSc2nc(-c3ccc(C(C)(C)C)cc3)nc3cc(=O)[nH]n23)c1C | inconclusive: 31.6 µM [cytotoxic, single point] | –
Cc1cc(Nc2cccc(F)c2)nc(-c2ccccc2O)n1 | active: 15.8 µM | –
O=C(NCc1ccccc1Cl)c1ccc(NC(=O)c2nsc3ccccc23)cc1 | inconclusive: 12.6 µM [cytotoxic, partial curve] | –
Cc1ccc(-c2noc(-c3nnn(CC(=O)Nc4cccc(C(F)(F)F)c4)c3N)n2)cc1 | inconclusive: 0.316 µM [cytotoxic, full curve, poor fit] | –
CC(=O)N1CCOc2cc(S(=O)(=O)Nc3cc(C(F)(F)F)ccc3Cl)c(C)cc21 | inconclusive: 31.6 µM [cytotoxic, single point] | –
CN(C)CCCn1cc(C2=C(c3c[nH]c4ccccc34)C(=O)NC2=O)c2ccccc21 | inconclusive: 25.1 µM [cytotoxic, partial curve] | –
COc1cc(OC)cc(C(=O)NCCN2CCOCC2)c1 | inconclusive: 31.6 µM [cytotoxic, single point] | –
O=C(Nc1ccc(O)c(C(=O)O)c1)c1ccc2c(c1)C(=O)N(CC1CCCO1)C2=O (stereo not drawn) | inactive | –
COc1ccc(NC(=O)C=C(C)C)cc1Cl | inconclusive: 15.8 µM [cytotoxic, partial curve] | –
COc1cccc(CNC(=O)Cn2c(SCC(=O)Nc3ccc(C)c(C)c3)nc3ccccc32)c1 | inconclusive: 31.6 µM [cytotoxic, single point] | –
CCCCCOc1ccc(NC(=O)Cn2c(-c3cncs3)nc3ccccc32)cc1 | inconclusive: 15.8 µM [cytotoxic, single point] | –
O=C(Nc1nc2ccccc2[nH]1)c1ccccc1F | active: 1.58 µM | –
COc1cc(/C=C/c2nc3cc(Cl)ccc3c(=O)n2-c2ccc(C)cc2C)cc(OC)c1OC | inconclusive: 0.0079 µM [cytotoxic, full curve, poor fit] | –
Clc1ccc(CN2C3=NCCN3c3ccccc32)cc1Cl | inconclusive: 10 µM [cytotoxic, partial curve] | –
Cc1ccc(-c2nc(C(=O)NC3CCCCCC3)no2)cc1 | inactive | –
Cc1ccc(Cn2c(C)c3cnn(CC(=O)N4CCN(c5ccc(F)cc5)CC4)c(=O)c3c2C)cc1 | inactive | –
O=c1c2ccccc2nc2n1CCc1c-2[nH]c2ccccc12 | inconclusive: 12.6 µM [cytotoxic, partial curve] | –

From PubChem BioAssay AID902 (National Center for Advancing Translational Sciences (NCATS), 2007)
